The chains are these.
B1: TPR 5TU (parent)
chain: GGAUCUUCUCGAUCUAACAAAAAAGACAAAUCUGCCACAAAGCUUGAGAGCAUCUUCGGAUGCAGAGGCGGCAGCCUUCGGUGGCGCGAUAGCGCCAACGUUCUCAACUAUGACACGCAAAACGCGUGCUCCGUUGAAUGGAGUUUAUCAUG

This sample is rich in variants without activity. Some results are limits rather than exact numbers.

Variants of B1 are the subject of the data set. Description: polymerase ribozyme fitness, log enrichment relative to wild type (log ratio); higher = more active; in vitro selection for triplet polymerase activity. The method, boiled down:
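Each subunit of a heterodimeric triplet polymerase ribozyme was represented by a PCR-built, transcribed mutant library that underwent triplicate single-round in vitro selection with frozen incubation at −7 °C. Extended constructs were recovered by gel excision, streptavidin-bead capture and RT-PCR, and Illumina sequencing of input and output libraries kept genotypes with ≥10 input reads and ≥1 read per output. Fitness is the logarithm of genotype enrichment relative to wild-type enrichment, from inverse-variance-weighted replicate averages, with a logarithm base of 2.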
As for GGCUCUUCUCGGUCUAACAAAAAAGACAAAUCUGCCACAAAGCUUGAGAGCAUCUUCGGAUGCAGAGGCGGCAGCCUUCGGUGGCGAGAUAGCGCCAACGUUCUCAACUAUGACACGCAAAACGCGUGCUCCGUGGAAUGUAGUUUAUCAUG, the “polymerase ribozyme fitness (log ratio)” value was at most -4.2.
For GGCUCUUCUCGAUCUAACAAAAAAGACAAAUCUGCCACAGAGCUUGAGAGCAUCUUCGGAUGCAGAGGCGGCAGCCUUCGGUGGCGCGAUAGCGUCAACGUUCUCAACUAUGACACGCAAGACGCGUGCUCCGUUGUAUGGUGUUUAUCAUG, the “polymerase ribozyme fitness (log ratio)” value was at most -4.2.
The same measure for GGCUCUUCUCGAUCUGACAAAAAUGACAAAUCUGCCACAAAGCUUGAUAGCAUCUUCGGAUGCAGAGGCGGCAUCCUUCGGUAGCGCGAUAGCGCCAACGUUCUCACCUAUGACACGCAAAACGCGUGCACCGUUGAAUGGAGUUUAUCAUG: at most -4.2; for GGCUCUUCUCGAUCUAACAAAAAAGACUAAUCUGCCACAAAGCUUGAGAGCAUCUUCUGAUGCAGAGGCGGCAUCAUUCGGUGGAGCGAUAGCGCCAACGUUCUCAACUAUGACACGCAAAACGCGUGCUCCGUUGAAUUGAGGUUAUCAUG: at most -4.2; for GGCUCUUCUCGAUCUAACAAAAAAGACAAGUCUGCCACAAAGCUUGAGGGCAUCUUCGGAUGCAGAGGCGGCAACCUUCGGUGGCUCGAUAGCGCCAACGUUCUCAACUAUGACACGCAAAACGCGUGCUCCGUUGAAUGGAUUUUAUCAUG: at most -4.2.
The same measure for GGCUCUUCUCGAUCUAACAUAAAAGACAAAUCUGCCACAAAGCUUGAGAGCAUCUUCGGAUGUAGAGGCGGCAGCCUUAGGUGGCGCGAUAGCGCCAACGUUAUCAACUAUGACACGCAAAACGCGUGCUCCGUUGAAUGGAGUUUAUAGUG: at most -4.2; for GGCUCUUCUCGUUCUAACAAAAAAGACAAAUCUGCCACAAAGCUUGAGGGCAUCUUCGAAUGCAGAGGCGGGAGCCUUCGGUGGCGCCAUAGCGCCAACGUUCUCAACUAUGACACGCAAAACGCGUGCUCCGUUGAAUGGAGUUUAUCAUG: at most -4.2; for GGCUCUUCUCGAUCUAACAAAAAAGACACAUCUGACACAAAGCUUGAGAGCAUCUUCGGAUGCAGAGGCGGCAGCCUUCGGUGGCGCGAUAGCGCCAACGUUCUCAACUAUGACACGCAAAACGCGUGCUCCGUUGAAUGGAGUUUCUCAUG: at most -4.2.
The same measure for GGCUCUUCUCGAUCUAACAAAAAAGACAAGUCUGCCAUAAAGUUUGAGAGCAUCUUCGGCUGCAGAGGCGGCAGCCUUCGGUGGCGCGAUAGCGCCAACGUUCUCAACUAUGACACGGAAAACGCGUGCUCCGUUGAAUGGAGUUUAUCAUG: at most -4.2; for GGCUCUUCUCGAUCUAACAAAAAAGACCAAUCUGCCACAAAGCUUGAGAGCAUCUUCGGAAGCAGAGGCGGCAGCCUUCGGUGGUGCGUUAGCGCCAACGUUCUCAACUAUGACACGCAAAACGCAUGCUCCGUCGGAUGGAGUUUAUCAUG: at most -4.2; for GGCUCUUCUCGAUCUAACGAAAAAGACAAAUCUGCCACAAAGCUUGAGAGCCGCUUCGGAUGCAGACGCGGUAGCCUUCGGUGGCGCGAUAGGGCCAACGUUCUCAUCUAUGACACGCAAAACGCGUGCUCCGUUGAUUGGAGUUUAUCAUU: at most -4.2.
Take UGAUCUUCUCGAUCUAACAAAAAAGACAAAUCUGCCACAAAGCUUGAGAGCAUCUUCGGAUGCAGAGGCGGCAGCCUUCGGUGGCGCGAUAGCGCCAACGUUCUCAACUAUGACACGCAAAACGCGUGCUCCGUUGAAUGGAGUUUAUCAUG: the “polymerase ribozyme fitness (log ratio)” value came out at 0.22.
As for GGCUCUUCUCGAUCUAACAACAAAGACAAAUUUGCCACAAAGCUUGAGAGCAUCUUCGGAUGCAGAGGCGGUAGCCUUCGGUGGCGCGAUAGCGCCAACGUUCUCAACUAUGACACGCAAAACGCGUGCUCCGUUCAAUGGAGUUUAUCAUG, the “polymerase ribozyme fitness (log ratio)” value is at most -4.2.
For the variant GGCUCUUCUCGAUCUAACAAAAAAGACACAUCUGCCACAAAGCUUGAGAGCAUCUUCUGAUGCAGAGGCGGCAGCCUUCGGUGGGGCGAUAGCGCCAACGUUCUCAACUAUGACACGCAAAACGCGUGCUCCGUUGCAUGGAGUUUAUCAUA, the “polymerase ribozyme fitness (log ratio)” value is at most -4.2.
The result for GGCUCUUCUCGAUCUAACAAAAUAGACAAAUCUGCCACAACGUUUGAGAGCAUCUUCGGAAGCCGAGGCGGCAGCCUUCGGUGGCGCGAUAGCGCUAACGUUCUCACCUAUGACGCGCAAAACGCGUGCUCCGUUGAAUGGAGUUUAUCAUG reads at most -4.2.
For the variant GGCUCUUCUCGAUCUAACAAAAAUGACAAAUCUGCCACAAAGCUUGAGAGCAUCUUCGGAUGCAGAGGCGGCAGCCUUCGGUUGCGCGAUAAGGCCGACGUUCUCAACUAUGACACGCAAAACGCGUGCUCCGUUGAAUGGAGUUUAACAUG, the “polymerase ribozyme fitness (log ratio)” value is at most -4.2.
The result for GGCUCUUCUCGAUCUAACAAAUAAGACAAAUCUGCCACAAAGCUUGAGUGCGUCUACGGAUGCAGAGGCGGCAGCCUUCGGUGGCGCGAUAGCGCCAACGUUCUCAACUAUGACACGCAAAACGCGUGCUCCGUUGAAUGGAGUUUAUCAUG reads -3.02; that for GGCUCUUCUCGAUCUAACAAAAAAGACCAAUCUGCCAAAAAGCUUGAGAGCAUCUUCGGAUGCAGAGGCGGCAGCCUUCUGUGGCGCUAUAGCGCCAAAGUUCUCAACUAUGACACGCAAAACGCGUGCUCCGUUGAAUGGAGUUUAUCAUG, at most -4.2; that for GGCUCUUCUCGAUCUAACAGAAAAGACAAAUCUGCCACAAAGCUUGAGAGCAUCUUCGGAUGCAGAGGCGGCAGCUUUCGGUGGCGGGAUAGCGCCAACGUUCUCAACGAUGACACGCAAAACGCGUGCUCCGUUGAAUGGCGUUUAACAUG, at most -4.2.
On to GGCUCUUCUCGAUCUAACAAAAUAGACAAAUCUGCCACAAAGCUUGAGAGCAUUUUCGGAUGCAGCGGCGGCAGCCUUCGGUGGCGCGAUAGCCCCAACGUUCUCAACUAUGACACGCAAAACGCGUGGUCCGUUGAAUGGAGUUUUUCAUG, for which the “polymerase ribozyme fitness (log ratio)” value is at most -4.2.
Take GGCUCUUCUCGAUCUAACAAAAAAGACAAAUCUGCCACAAGGCUUGAGAGCAUCUUCGGAUGCAGAGGCGGCAGCCUUCGGUGACGCGAUAGCGCCAACGUUCUCAACUAUGACACGCAAAACGCCUGCUCCGUUGAAUGGAGUUUAUCAUG: the “polymerase ribozyme fitness (log ratio)” value was -0.499.
Regarding GGCUCUUCUCGGUCUAACAAAAAAGAGAGAUCUGCCACAAAGCUUGAAUGCAUCUUCGGAUGCCGAGGCGGCAGCCUUCGGUGGCGCGAUAGCGCCAAUGUUCUCAACUAUGACACGCAAAACGCGUGCUCCGUUGAAUGGAGUUUAUCAUG, the “polymerase ribozyme fitness (log ratio)” value was at most -4.2.
For the variant GGCUCUUCUCGAUCUAACAAAAAAGACAACUCAGCCACAAAGCUUGAGAGCAUCUUCGGAUGCAGAGGCGGCAGCCUUCGGUGGCGCGCUAACGCCAACGUUCUCAACUAUGACAAGCAAAACGCGUGCUACGUCGAAUGGAGUUUAUCAUG, the “polymerase ribozyme fitness (log ratio)” value was at most -4.2.
The result for GGCUCUUCUCGAUCUAACAAAAAGGACAAAUCUGCUACAAUGCUUGAGAGCAUCUUCGGAUGCAGAGGCGGUAGCCUUCGGUGGAGCGAUUGCGCCAACGUUCUCAACUAUGACACGCAAAACGCGUGCUCCGUUGAAUGGAGUUUAUCAAC reads at most -4.2; that for GGCUCUUCUCGAUCUAACAAAUAAGACAAAUCUGCCACAAAGCUUGAGAGCAUCUUCGGAUGCAGAGGCGGCAGCCUUCGGUGGCGCGAUUUCGCCAACGUUCUCAACUAUGACACGCAAAACGCGUGCUCCGUUGAAUGGACUUUAUCAUG, at most -4.2.
The same measure for GGCUCUUCUCGAUCUAACACAAAAGACAAAUCUGCCAUAACGCUUGAGAGCAACUUCGGAUGCAGAGGCGACAGCCUUCGGUGGCGCGAUAGAUCCAACGUUCUCAACUAUGACACGCAAAACGCCUGCUCCGUUGAAUGGAGUUUAUCAUG: at most -4.2; for GGCUCUUCUCGAUCUAACAAAAAAGACAAAUCUGCCACAAAGCUUGUGAGCAUCUUCGGAUGCAGAGGCGGCAGCCUUCGGUGGCGCGAUAGCGCCAACGUUCUCAACUAUGACACGCAAAACGCGUGCUCCGUUGAAUGGAGUUUAUCAUG: -0.813; for GGCUCUUCUCGAUCUAACCAAAAAGACAAAUCUGCCACAUAGCUUGUGCGCAUCUUCGGAUGCAGAGGCGGCAGCCUUCGGUGGCGCGACAGCGCCAACGUUCUCAACGAUGACACGCAAGACGCGUGCUCCGUUGAAUGGAGUUUAUCAUG: at most -4.2.
As for GGCUCUUCUCGAUCUAACAAAAAAGACAAAUCUGCCACAAAGCUUGCGAGCAUCUUCGCAUGCAGAGGCGGCAGCCUUCGGUGGCACGAUAGCGCCAACGUUCUCAACUAUGACACGCAAAACGCGUGCUCCGUUGAAUGGAGUUUAUCAUG, the “polymerase ribozyme fitness (log ratio)” value is -3.89.
The same measure for GGCUCUUCUCGAUCUAGCAAAAAAGACAAAUCUGCCACAAAGCUUGAGAGCAUCUUCGGAUGCAGAGGGGGCAGCCUUCGGUGGCGCGAUAGCGCCAACGUUCUCAACUAUGACAGGCAAAGCGCGUGCUCCGUUGAAUGGAGUUUAUCAUG: -1.99; for GGCUCUUCUCGAUCUAACCAAAAAGACAAAUCUGCCACAAAGCUUCAGAGCAUCUUCGGAUGCAUAGGCGGCAGUCUUCGGUGGCGCGAUAGCGCCAACGUUCUGACCUAUGACACGCAAAACGCGUGCUCCGUUGAAUGGAGUUUAUCCUG: at most -4.2; for GGCUCUUCUCGAUCUAACAAAUAAGACAAAUCUGCCACAACGCUUGAGAGCAUCUUCGGAUGCAGAGGCGGCAGCCUUCGGUGACACGAUAGCGCCAACGUUCUCAACUAUGACACGCAAAACGCGUGCUCCGUUGAAUGGAGUUUAUCAUG: at most -4.2.
Regarding GGCUCUUCUCGUUCUAACAAAAAAGACAAAUCUGCCCCAAAGCUUGAGAGCAUCUGUGGAUGCAGAGUCGGCAGGCUUCGGUGACGCGAUAGCGCCAACGUUCUCAACUAUGACACGCAAAACGCGUGGUCCGUUGAAUGGAGUUUAUCAUG, the “polymerase ribozyme fitness (log ratio)” value was at most -4.2.
As for GGCUCUUCUCGGUCUAGCAAACUAGACAAAUCUGCCACAAAGCUUGAGAGCAUCUUCGGAUGCAGAGGCGGCAGCAUUCGGUGGCGCGAUCGCGCCAACGUUCUCAACUAUGACACGCAAAACGCGUGCUCCGUUGAAUGGAGUUUAUCAUG, the “polymerase ribozyme fitness (log ratio)” value was at most -4.2.
The result for GGCUCUUCUCGAUCUAACAAAAAAGACAAAUCUGCCACAAGGCUUGAGACCAGCUUCGGAUGCAGAUGCGGCAGCCUUCGGUGGCCCGAUAGCGCCAACGUUCUCAACUAUGACACGCAAAACGCGUUUUCCGUUGAAUGGAGUUGAUUAUG reads at most -4.2; that for GGCUCUUCUCGAUCUAUCAAAAAAGACAAAUCUGCCACAAAGCUUGAGUGCAUCUUCUGAUGCAGAGGCGGCUGCCUUCGGUGGCGCGAUAGCGCCAACGUUCUCAACUAUGACACGCAAAACGCGCGCUCCAUCGAAUGGAGGUUAUCAUG, at most -4.2; that for GGCUCUUCUCGAUCUAACAAAAAAGCCAAAUCUGCCACAAAGCUUGCCAGCAUCUUCGGAUGCAGAGGCGGCAGCCUUCGGUGGCGCGAUAGCCCCAACGUUCUCAACUAUGACACGCAAAACGCGUGCUCCGUUGAAUGUAGUUUAUCAUG, at most -4.2.
The result for GGCUCUUCUCGAUCUAACAAAAAAGACAAAUCUGCCACAAAGCUUGGGAGCGUCUUCGGAUGCAGAGGCGGCAGCCUUCGGUGGCGUGAUAGCGCUAAUGUUCUCAACUAUGACACGCAAAACACGUGCUCCGUUGAAUGGAGUUUAUCAUG reads -4.19.

These data come from the RNAGym collection of RNA variant scans (doi:10.1073/pnas.2313332121).
